{"source": "the RNAGym collection of RNA variant scans (doi:10.7554/elife.90254)", "parents": {"B1": {"name": "OR4K15 (parent)", "chain": "GUUAACGGUCAUAGGCCAUGGAAACUAGGAGCACCAUUUCGCUGCCAGUGAAGAAAUGAACAAAGAAAAUCUGGGCCAGGCAGGCAUCAAAAGAAAUAGUCUUGCGCUCAACCAGAAAGUCUGUAAUCAUUUUAAGGGUA"}}, "note": "Read counts are not given, so values of variants with three or more changes are uncertain.", "data": [{"variants_of": "B1", "experiment": "self-cleavage, relative activity (ratio to wild type); higher = more cleavage; in vitro, sequencing; the parent is a self-cleaving ribozyme", "values": [{"variant": "A5U A68U A126G", "self-cleavage": 1.22}, {"variant": "A5G A24G A66G A89G", "self-cleavage": 0.92}, {"variant": "A5G A54G U70A", "self-cleavage": 1.23}, {"variant": "A5G A18G A52G U57A A62G A68G A82G A91G U131C", "self-cleavage": 0}, {"variant": "A5G A95G A126U U133A", "self-cleavage": 0.56}, {"variant": "A5G A23G A62G A69C U72C A94G", "self-cleavage": 0.15}, {"variant": "A4G U12C A22G A36G A125U U131C", "self-cleavage": 1.06}, {"variant": "A5G A23G A24G U37C A59G A60G", "self-cleavage": 0.94}, {"variant": "A5C A55U A86G A90G U108C A117G", "self-cleavage": 0}, {"variant": "A5C A63G A114G A117G", "self-cleavage": 0.64}, {"variant": "A5G A36G A66C A94G", "self-cleavage": 1.02}, {"variant": "A5C A62G A90G", "self-cleavage": 1.53}, {"variant": "A5G C25A U38C U102C", "self-cleavage": 1.25}, {"variant": "A5G A13U A23G U97A U132C", "self-cleavage": 1.27}, {"variant": "A5G A60G U108A", "self-cleavage": 0.12}, {"variant": "A4G G50A A96G A111U", "self-cleavage": 0.05}, {"variant": "A5U A23G A55G", "self-cleavage": 0.74}, {"variant": "A5G U39A A118G", "self-cleavage": 1.03}, {"variant": "A5G U26G A89G A96G U103C A116G", "self-cleavage": 0.44}, {"variant": "A5G A27G U37C A94G", "self-cleavage": 0.65}, {"variant": "A5G A13G A68G A69G", "self-cleavage": 0.86}, {"variant": "A5G G14A A30G A59G A116G A135U G136U", "self-cleavage": 0.64}, {"variant": "A5G A92G A111G A118U", "self-cleavage": 0.04}, {"variant": "A5G A92G U103C", "self-cleavage": 0.38}, {"variant": "A5G A23U A63G U100C", "self-cleavage": 1.7}, {"variant": "A5G A54G A114C A117G A126G", "self-cleavage": 0}, {"variant": "A5G U87A A110G", "self-cleavage": 0.09}, {"variant": "A5G A11G G14A U43C A78C A91U A96G U102C", "self-cleavage": 0.44}, {"variant": "A4G U43A A63G G136A", "self-cleavage": 2.14}, {"variant": "A5G A52G A98G A114G", "self-cleavage": 0.12}, {"variant": "A5G A23U U100C A118G", "self-cleavage": 1.11}, {"variant": "A5G C42U A82G U102A G104A", "self-cleavage": 0.11}, {"variant": "A5G U37C U72C", "self-cleavage": 0.33}, {"variant": "A5G A47G A54G U57C", "self-cleavage": 0.51}, {"variant": "A5G A11G U43C A52G A118G", "self-cleavage": 1.25}, {"variant": "A5G A60G G79A", "self-cleavage": 0.26}, {"variant": "A5C A54G A60G A68G U70A", "self-cleavage": 0.79}, {"variant": "A5G A68G A118G", "self-cleavage": 0.79}, {"variant": "A5G A22G A55U", "self-cleavage": 0.76}, {"variant": "A4G G41U A89U A118U", "self-cleavage": 1.16}, {"variant": "A5G A52G A64G U70C A78G", "self-cleavage": 0.16}, {"variant": "A5U G31A A62G U108C", "self-cleavage": 0.05}, {"variant": "A5G U26A A36U A78G A135G", "self-cleavage": 0.2}, {"variant": "A5G G8U U39C A68G A78C A118G A135G", "self-cleavage": 0.43}, {"variant": "A5G A118G U122C", "self-cleavage": 0.92}, {"variant": "A5G A47C U70C U100A", "self-cleavage": 0.31}, {"variant": "A5G A69G A90G A135G", "self-cleavage": 0.42}, {"variant": "A5G U43C U57A A64U", "self-cleavage": 0.46}, {"variant": "A5G U49C C88A", "self-cleavage": 1.24}, {"variant": "A5G A24G A47G A67G", "self-cleavage": 1.85}, {"variant": "A5G A51U A116G", "self-cleavage": 0.11}, {"variant": "A5U A60G A125G", "self-cleavage": 1.05}, {"variant": "A5G G15C A27G A52G", "self-cleavage": 1.31}, {"variant": "A5G A47G A64G", "self-cleavage": 1.16}, {"variant": "A5G U39A U108A", "self-cleavage": 0.1}, {"variant": "A5G A22G A47G A55U A94G", "self-cleavage": 1.05}, {"variant": "A5G A47G A60G", "self-cleavage": 0.64}, {"variant": "A5G A36G A69G U130C U131C", "self-cleavage": 0.32}, {"variant": "A5G A94U U100A G106A", "self-cleavage": 0}, {"variant": "A5G A86G A111G U120C", "self-cleavage": 0.09}, {"variant": "A5G A18G A60G A78G A117G", "self-cleavage": 0.84}, {"variant": "A5G A82U U87C A92U A125G", "self-cleavage": 0.04}, {"variant": "A4G G73A A82U A125G", "self-cleavage": 0}, {"variant": "A5U A52G A114G U120C", "self-cleavage": 0.07}, {"variant": "A5G U100C A111C U120C", "self-cleavage": 0.02}, {"variant": "A5G U9C A86G", "self-cleavage": 0.63}, {"variant": "A5G U37C A51G A52U", "self-cleavage": 0.51}, {"variant": "A5G A55G A129G", "self-cleavage": 0.46}, {"variant": "A5G A11U U49C U100C", "self-cleavage": 1.38}, {"variant": "A5U A22G U72C A118G", "self-cleavage": 0.21}, {"variant": "A5G A22G A55G U100C C109U", "self-cleavage": 0.73}, {"variant": "A5G A27U A52G A68G", "self-cleavage": 0.97}, {"variant": "A4G U39C A69U", "self-cleavage": 1.04}, {"variant": "A5G C40U A54U A69C G75C", "self-cleavage": 0.2}, {"variant": "A5G A18G A23G A24G U43C A118G", "self-cleavage": 0.67}, {"variant": "A5U U37C U43C U49C G73A U108C U131C", "self-cleavage": 0.02}, {"variant": "A5G U37C A95G U108A A118G", "self-cleavage": 0.03}, {"variant": "A5U A51G A67G A68G U131C", "self-cleavage": 1}, {"variant": "A5U A47G A91G A126G", "self-cleavage": 0.24}, {"variant": "A5G C34G A94U U139A", "self-cleavage": 1.17}, {"variant": "A5G A36G A67G", "self-cleavage": 0.79}, {"variant": "A5G U49C A60G A86G U100C", "self-cleavage": 0.44}, {"variant": "A4G G48A A129G", "self-cleavage": 1.01}]}]}
